± gives the standard deviation of the averaged measurements. The full ranking holds about 4,100 sequences; the median of “arbitrary fluorescence units” is about 780, and the highest 2% start at about 22,000. Some of the results follow.

For the assay, the target named is T1, ETS1 (UniProt P14921).
T1 sequence: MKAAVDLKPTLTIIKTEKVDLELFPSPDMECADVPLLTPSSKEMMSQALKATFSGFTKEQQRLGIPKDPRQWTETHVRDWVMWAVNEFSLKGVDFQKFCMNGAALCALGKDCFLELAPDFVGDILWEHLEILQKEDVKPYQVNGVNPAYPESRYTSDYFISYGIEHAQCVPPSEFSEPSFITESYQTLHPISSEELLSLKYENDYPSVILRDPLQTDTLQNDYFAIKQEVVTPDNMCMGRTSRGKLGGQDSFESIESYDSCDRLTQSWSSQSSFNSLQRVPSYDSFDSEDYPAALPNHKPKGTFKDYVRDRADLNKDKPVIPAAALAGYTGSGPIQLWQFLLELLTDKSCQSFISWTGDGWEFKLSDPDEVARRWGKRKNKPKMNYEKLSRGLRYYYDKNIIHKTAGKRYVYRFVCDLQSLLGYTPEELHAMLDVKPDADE
Nature of the assay: ETS1 binding intensity (PBM fluorescence), ETS1 alone (arbitrary fluorescence units); higher = stronger binding. Conditions: ETS1 concentration 1 nM; RUNX1 concentration 0 nM. The procedure, abridged: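 Double-stranded Agilent 4 × 180k arrays held 36-bp genomic probes whose RUNX1 partner site was mutated, and these were incubated with 1 nM full-length recombinant human ETS1 in the absence of RUNX1 under standard PBM protocols. Bound protein was labelled with anti-ETS1 antibody (Cell Signaling Technology 14069) plus an Alexa488-conjugated secondary and read on a GenePix 4400A, with four spots printed per sequence. Binding level is reported as raw spot fluorescence intensity summarised over replicate spots.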
In turn, CCCCTCCGCTAAGCGCTCATCCCAGGAAAAAGGGGC came in with an ETS1 binding intensity of 348.

Take TGGGACTCTCAGCCCCAGAAGGCAGGAAATAGTGGC: the ETS1 binding intensity was 820.

GCCTCCTTCCTGGGCTCCTTTAAGAGGGTGGCAACG had an ETS1 binding intensity of 1980.

CCTGCGCCGAAGCGTCCGGCCGCCGCTGGGTAGGGC: the ETS1 binding intensity was found to be 843.

Sequence GCTTGTAGTTGGAAACCTGCAGTCACAGAGGAAGTG displayed an ETS1 binding intensity of 497.

TGGTGGGTGCTCACAGAGCACTTCCGCATTCCTGAG yielded an ETS1 binding intensity of 2960.

CCGGGCGGGTGAAAAGTCCGAGAGAATCAGGATGGA returned an ETS1 binding intensity of 379.

As for GGTTGCTCGGATCCGGGACTGCCGAAGGGGGTGCCA, the ETS1 binding intensity was 494.

For CCTTGAAACAGCGGGGTGGGGAAGTCTAAAAATAGT, the ETS1 binding intensity worked out at 527.

Consider GAAAAATGAAGTTTCCGCAGTAACCCCAACACAGCC, for which the ETS1 binding intensity was found to be 1480.

For CCCTTTTTGGTCACAAAAACATTTCCTAGTTGAGAT, the ETS1 binding intensity is 543.

With CTGCGGATGGAGCCTGCTCCTGCAAATCCACTGCTG, the ETS1 binding intensity was determined as 336.

CACGCTTGCTATCACAAAAAGGAAATGCATCTGCAG displayed an ETS1 binding intensity of 536.

Sequence CAACGGCGTAGCCGGAAGTCAGTGGATTTCGCCCCA registered an ETS1 binding intensity of 7360.

Sequence CCTCAGGAGAAAGCACCCTAGTAGTTCCGCTCCGAG came in with an ETS1 binding intensity of 412.

Turning to AGGACCGGAAGTGCCCGAGGGCGGCCGGAGAACGGT, the ETS1 binding intensity is 45500.

With AGAGTGTAGCCGGAGAACTCACATCCTTGTTTACAT, the ETS1 binding intensity worked out at 529.

Take GAGACACCTCATGGGTAGAGAAACTTCCGTAATGTT: the ETS1 binding intensity came out at 606.

Sequence ACTCTGTAGTTTCATTGCCTGCCCGGAAATGCAGCT had an ETS1 binding intensity of 852.

For GATATGGCAGGAAGTAGGGCCTGGAAACAGCACGGC, the ETS1 binding intensity amounted to 5700 ± 280.

Take AGGCTCATTTCCTGTTTTCATGTAGTTTAGAGAAAA: the ETS1 binding intensity worked out at 24300.

Regarding CTCTTCCTGCCTGTCCGTGGCTGGTGTAGTTTGCGT, the ETS1 binding intensity stood at 7100.

GTGCAACTGCTGTAAAAATAGGAAGTGGGGGAGGAG returned an ETS1 binding intensity of 861.

For the sequence CCATAGCCTAACCCCAAGCACCTCAGGAAGTTCTTT, the ETS1 binding intensity is 443.

Sequence AAAAATATCACACTAGCTAGGGCAGGAAGTGGGTGG returned an ETS1 binding intensity of 1050.

As for ACTGCTTCTTGAGGTGAGGGACAGGAAACCAAGAGG, the ETS1 binding intensity was 649.

Turning to ACCTCTTCCGAGACCCAAAATGCGCGATCTGGAGAG, the ETS1 binding intensity is 591.

GGGAGGAAGTGTGAAGGGACTTTTTTGGTGAGTGAT: the ETS1 binding intensity stood at 743.

For AGTAGCCGCTAGCAATCTCATGAGCAGGAAGCACAA, the ETS1 binding intensity stood at 406 ± 20.

With CGGGAGCGGCCGAAGTGACGACTTCCGGGATGCTCC, the ETS1 binding intensity was found to be 7380.

GTGTCCTGTGCTCTCCTCTGCGCCACTTCCCTGCCT yielded an ETS1 binding intensity of 623.

For GGGGTGCTGGGAAATGGAGCGAGAGGTGGATTCCAG, the ETS1 binding intensity was found to be 466.

CCGCCGCGACACTTCCGGCGGCCACCAGAGGGTATT gave an ETS1 binding intensity of 20200.

As for AGTTGGTTCCTTCCGGTGGGTTTGTGAGTTTGGGGT, the ETS1 binding intensity was 8000.

In the case of AAACAAGCGCTAACGCGACCACTTCCGCCACAGCCT, the ETS1 binding intensity came to 4580.

GGATGACATCCGGCACCAACTTATCCACTAATCTCA had an ETS1 binding intensity of 13800.

Turning to GAAGAAGTCAGGAAATGCTGCCGTAGCAGCCAGCCC, the ETS1 binding intensity worked out at 1420.

Take CTGCGGAAGCAGCCAAGGCGGGCCCTCCCGTAGGCC: the ETS1 binding intensity stood at 1100.

CCTCCGCTGGGGTGTCTGTAACTACTTCCTCAGGAG registered an ETS1 binding intensity of 490.

As to ACACAGGAAGCAAAAGTTAAGCTATAAAACCCTCAA, the ETS1 binding intensity was 1720.

As for CTCCTGGGCTCGTTGTCAAAACATCCTGTAGCAAGG, the ETS1 binding intensity was found to be 1130.

Sequence GCGGGGCGTGTCCACGCACTTCCGGTTTTCTCGAAA had an ETS1 binding intensity of 28700.

Consider CGGAGCCCAACGACCGGCACTTCCGGGGGGCGGGTG, for which the ETS1 binding intensity is 5010.

TCTCTCTACGGAAGCTGGTAGGGCTGTAGGTGCTTC showed an ETS1 binding intensity of 562.

GTTCACGTTCCGCTCTTAGTGCGCGTTGAGTTCCCC yielded an ETS1 binding intensity of 429.

In the case of AGAGGCAGCTTCCGGAGACTGCTCTCTGGCCAGTTT, the ETS1 binding intensity came out at 9500.

In the case of CCACCCACTTCCTGCCCTAGCTAGTGTGATATTTTT, the ETS1 binding intensity is 19300.

For ATCGGCGGTCCCCCAGGTCCCGGATGTAGCGGACAG, the ETS1 binding intensity worked out at 1480.

For GCGCCGCTCACAGCCGATCGACATTTCCCAGAATCA, the ETS1 binding intensity amounted to 313.

GCGCGGCCCGGAAGGGGGTAAACGCTGAGTCTTTGA showed an ETS1 binding intensity of 1160.

TCAGAACCCCAGACGTGGCCCTGCGTGGCTTCCGGC registered an ETS1 binding intensity of 757.

In turn, AAGGCGGAGGAAGGGAAAATTGGGGTTGGGCAGAGG yielded an ETS1 binding intensity of 418.

CAGGATCTGCTGCAGGCCCGCCTTCCGTCCCCGGCC showed an ETS1 binding intensity of 508.

ATAGCTTGGGGTTTATGGGTCAGGAAGTTGAGGGTG gave an ETS1 binding intensity of 598.

As to TCTCTTTGCCGCGAGGAAAGCTGGGAAATGTAGTGC, the ETS1 binding intensity amounted to 463.

As for ACCCTACTTCCGTTGCTGTGTCGCGGAGGTGACCTA, the ETS1 binding intensity stood at 17100.

AGTGACGTTTGGGGCAGTAAGGCTTCCGTCGGAAAA displayed an ETS1 binding intensity of 601.

For the sequence TCAACGCCACCCCAAAGAGACGTCCGGGAGAAGCCT, the ETS1 binding intensity was 433.

As for GCACAGCGATCACAGAGGTGACGCGGAAGGAGACTG, the ETS1 binding intensity turned out to be 381.

CCCTTCGCTTCCGCTCCGCGTTCCAACAATGCAGTG gave an ETS1 binding intensity of 9720.

Consider TTGTCACGTCCGGCACGCCGCGAACGTCAAGGAACC, for which the ETS1 binding intensity came out at 5430.

Sequence TGGAGGAGACAACACCTTCAAGCAACATCCTCTCCT came in with an ETS1 binding intensity of 559.

AATTGAGACAGGAAATGTTGGTTTGGGGTCAGGCAC showed an ETS1 binding intensity of 5970.

ACCTCACCCTCATAGTGTTAAGAAAGCGTTTCCTGC had an ETS1 binding intensity of 755.

CCTTTACTTCCTTTTACTTCTAATCACAGAATTAAA showed an ETS1 binding intensity of 8540.

As for TGGCAGCAAAGCACGGAGGCTTCTCGGATGTGCAGA, the ETS1 binding intensity came to 326.

In turn, GAAATGAAGGCCGGATGTCAGTAACCCCAAACGAGC gave an ETS1 binding intensity of 9810.

As for TGTTGGAAACTACAGGGCCCGGTGGATATCCGTCAC, the ETS1 binding intensity came out at 403.

In the case of CGGTGCAGTGAGCTCGACACTCACTTCCCTGTGCAG, the ETS1 binding intensity is 345.

As for CTCGGCCTACGGCGGGGTAGAGCGCCGGAAACGGCT, the ETS1 binding intensity is 761.

For GACCCGGCTACACCTCAAGAAAAGGAAGTTCCCGTA, the ETS1 binding intensity was 564.

GCTTCTTCCGGCCGGGCCGAGAGGTGCTTACATTCG displayed an ETS1 binding intensity of 17900.

On to GACAGAACCTGTGCTCTGCAGGGTTTCCTGTTAAAC, for which the ETS1 binding intensity was determined as 941.

The sequence GCTGTATTCGGTGGCTTAGGATGTAGGTTTCTTTGT gave an ETS1 binding intensity of 512.

On to TCCTCCGTTTCCGTAGTTCCGAGTTGCGATTTCTCC, for which the ETS1 binding intensity worked out at 3890.

Consider GGAGGCGGAAGTGGAGGTTGTTGGGGCTCCGAGGGC, for which the ETS1 binding intensity came out at 4230.

In turn, GCAAAAACAACGGTCTTGAAGGAAGCCTGCCTGATA returned an ETS1 binding intensity of 382.

Sequence CCCATTTCCGAGAGTGGCAGGGCTGGGCGCGGAGGG yielded an ETS1 binding intensity of 2750.

CATTGAATGGGGTAGGAGGTGGGGAGGAAGCCACTG returned an ETS1 binding intensity of 594.

With CTGCCCACCGGAAACGATGGCGCGAGGCCGCTGAGC, the ETS1 binding intensity was 18600.

Values taken from the supplement of paper PMC10681739.
